This is one part of the list.
Key:
Assay in all cases: glycan array binding signal (z-score within array); higher = stronger binding
Conditions in all cases: glycan notation: IUPAC condensed, linker removed
[1] = molecular target: GlcNAc(b1-3)Gal(b1-4)GlcNAc(b1-3)Gal(b1-4)GlcNAc(b1-3)GalNAc
Procedure, shortened: (§1)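 Glycan array data came from 3228 arrays in the Consortium for Functional Glycomics database, and only arrays with an available protein sequence were kept. Glycan names were put into IUPAC-condensed notation, and columns mapping to the same glycan were averaged. The binding signal is a within-array Z-score, averaged across arrays of one protein sequence run at different concentrations or buffers and across linkers. A negative Z-score can be read as non-binding.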

[2] = molecular target: GlcNAc(b1-3)Gal(b1-4)GlcNAc(b1-3)GalNAc
Procedure, shortened: as §1

[3] = molecular target: GlcNAc(b1-3)Gal(b1-4)GlcNAc(b1-3)[GlcNAc(b1-3)Gal(b1-4)GlcNAc(b1-3)]GalNAc
Procedure, shortened: as §1

[4] = molecular target: GlcNAc(b1-3)Gal(b1-4)GlcNAc(b1-6)[Gal(b1-3)]GalNAc
Procedure, shortened: as §1

[5] = molecular target: GlcNAc(b1-3)Gal(b1-4)GlcNAc(b1-6)[GlcNAc(b1-3)Gal(b1-3)]GalNAc
Procedure, shortened: as §1

[6] = molecular target: GlcNAc(b1-3)Gal(b1-4)GlcNAc(b1-6)[GlcNAc(b1-3)]Gal(b1-4)GlcNAc
Procedure, shortened: as §1

GlcNAc(b1-3)GalNAc = molecular target: GlcNAc(b1-3)GalNAc
Procedure, shortened: as §1

GlcNAc(b1-3)Man = molecular target: GlcNAc(b1-3)Man
Procedure, shortened: as §1

[7] = molecular target: GlcNAc(b1-3)[GlcNAc(b1-4)][GlcNAc(b1-6)]GlcNAc
Procedure, shortened: as §1

[8] = molecular target: GlcNAc(b1-3)[GlcNAc(b1-6)]Gal(b1-4)GlcNAc
Procedure, shortened: as §1

[9] = molecular target: GlcNAc(b1-3)[GlcNAc(b1-6)]GalNAc
Procedure, shortened: as §1

[10] = molecular target: GlcNAc(b1-4)Gal(b1-4)GlcNAc
Procedure, shortened: as §1

GlcNAc(b1-4)GlcNAc = molecular target: GlcNAc(b1-4)GlcNAc
Procedure, shortened: as §1

[11] = molecular target: GlcNAc(b1-4)GlcNAc(b1-4)GlcNAc
Procedure, shortened: as §1

[12] = molecular target: GlcNAc(b1-4)GlcNAc(b1-4)GlcNAc(b1-4)GlcNAc(b1-4)GlcNAc
Procedure, shortened: as §1

[13] = molecular target: GlcNAc(b1-4)GlcNAc(b1-4)GlcNAc(b1-4)GlcNAc(b1-4)GlcNAc(b1-4)GlcNAc
Procedure, shortened: as §1

[14] = molecular target: GlcNAc(b1-4)[GlcNAc(b1-6)]GalNAc
Procedure, shortened: as §1

[15] = molecular target: GlcNAc(b1-6)Gal(b1-4)GlcNAc
Procedure, shortened: as §1

GlcNAc(b1-6)GalNAc = molecular target: GlcNAc(b1-6)GalNAc
Procedure, shortened: as §1

[16] = molecular target: GlcNAc6S(b1-3)Gal(b1-4)GlcNAc
Procedure, shortened: as §1

Kdn(a2-3)Gal(b1-3)GalNAc = molecular target: Kdn(a2-3)Gal(b1-3)GalNAc
Procedure, shortened: as §1

Kdn(a2-3)Gal(b1-3)GlcNAc = molecular target: Kdn(a2-3)Gal(b1-3)GlcNAc
Procedure, shortened: as §1

Kdn(a2-3)Gal(b1-4)Glc = molecular target: Kdn(a2-3)Gal(b1-4)Glc
Procedure, shortened: as §1

Kdn(a2-3)Gal(b1-4)GlcNAc = molecular target: Kdn(a2-3)Gal(b1-4)GlcNAc
Procedure, shortened: as §1

[17] = molecular target: Kdn(a2-3)Gal(b1-4)[Fuc(a1-3)]GlcNAc
Procedure, shortened: as §1

Kdn(a2-6)Gal(b1-4)GlcNAc = molecular target: Kdn(a2-6)Gal(b1-4)GlcNAc
Procedure, shortened: as §1

[18] = molecular target: Man(a1-2)Man(a1-2)Man(a1-3)Man
Procedure, shortened: as §1

[19] = molecular target: Man(a1-2)Man(a1-2)Man(a1-6)[Man(a1-3)]Man
Procedure, shortened: as §1

Man(a1-2)Man(a1-3)Man = molecular target: Man(a1-2)Man(a1-3)Man
Procedure, shortened: as §1

[20] = molecular target: Man(a1-2)Man(a1-3)[Man(a1-2)Man(a1-6)]Man
Procedure, shortened: as §1

[21] = molecular target: Man(a1-2)Man(a1-3)[Man(a1-2)Man(a1-6)]Man(a1-6)[Man(a1-2)Man(a1-2)Man(a1-3)]Man
Procedure, shortened: as §1

[22] = molecular target: Man(a1-2)Man(a1-3)[Man(a1-2)Man(a1-6)]Man(a1-6)[Man(a1-2)Man(a1-2)Man(a1-3)]Man(b1-4)GlcNAc(b1-4)GlcNAc
Procedure, shortened: as §1

[23] = molecular target: Man(a1-2)Man(a1-3)[Man(a1-6)]Man(a1-6)[Man(a1-2)Man(a1-3)]Man(b1-4)GlcNAc(b1-4)GlcNAc
Procedure, shortened: as §1

[24] = molecular target: Man(a1-2)Man(a1-6)[Man(a1-3)]Man(a1-6)[Man(a1-2)Man(a1-2)Man(a1-3)]Man
Procedure, shortened: as §1

[25] = molecular target: Man(a1-2)Man(a1-6)[Man(a1-3)]Man(a1-6)[Man(a1-2)Man(a1-2)Man(a1-3)]Man(b1-4)GlcNAc(b1-4)GlcNAc
Procedure, shortened: as §1

Man(a1-3)[Man(a1-6)]Man = molecular target: Man(a1-3)[Man(a1-6)]Man
Procedure, shortened: as §1

[26] = molecular target: Man(a1-3)[Man(a1-6)]Man(a1-6)[Man(a1-2)Man(a1-3)]Man(b1-4)GlcNAc(b1-4)GlcNAc
Procedure, shortened: as §1

[27] = molecular target: Man(a1-3)[Man(a1-6)]Man(a1-6)[Man(a1-3)]Man
Procedure, shortened: as §1

[28] = molecular target: Man(a1-3)[Man(a1-6)]Man(a1-6)[Man(a1-3)]Man(b1-4)GlcNAc(b1-4)GlcNAc
Procedure, shortened: as §1

[29] = molecular target: Man(a1-3)[Man(a1-6)]Man(b1-4)GlcNAc(b1-4)GlcNAc
Procedure, shortened: as §1

[30] = molecular target: Man(a1-3)[Man(a1-6)]Man(b1-4)GlcNAc(b1-4)[Fuc(a1-6)]GlcNAc
Procedure, shortened: as §1

Man(a1-6)Man = molecular target: Man(a1-6)Man
Procedure, shortened: as §1

Man(b1-4)GlcNAc = molecular target: Man(b1-4)GlcNAc
Procedure, shortened: as §1

MurNAc(b1-4)GlcNAc = molecular target: MurNAc(b1-4)GlcNAc
Procedure, shortened: as §1

Neu5Ac(a2-3)Gal = molecular target: Neu5Ac(a2-3)Gal
Procedure, shortened: as §1

B1: Pwp3 (Candida glabrata) (protein)
chain: MGSSHHHHHHSSGLVPRGSHMASKNPVDFTTVCQFPDNFSKKPGFLATTARLGLWITGNSYKELLNYPGTFTLTTQQASTTTPNIQLRGTDLFTTIYGLTVYPLYLLVELQGYFVPTQSGMYTFSLTGSDDAAIIFIGNPSTFPCDAFKTWPQATANDITVTDSINPSRTLYMVKGVAYPLRIAYYNGLGNGVLNAAFTDPSGTKRTDWNGYIWQYDQCSTCTYK
With B1 the “glycan array binding signal (z-score)” value [1] was -0.648, the “glycan array binding signal (z-score)” value [2] was -0.715 and the “glycan array binding signal (z-score)” value [3] was 0.29. The “glycan array binding signal (z-score)” value [4] was -0.326, the “glycan array binding signal (z-score)” value [5] was -0.655 and the “glycan array binding signal (z-score)” value [6] was -0.096. The “glycan array binding signal (z-score)” value (GlcNAc(b1-3)GalNAc) was -0.946, the “glycan array binding signal (z-score)” value (GlcNAc(b1-3)Man) was -0.51 and the “glycan array binding signal (z-score)” value [7] was -0.607. The “glycan array binding signal (z-score)” value [8] was -0.126, the “glycan array binding signal (z-score)” value [9] was 0.246 and the “glycan array binding signal (z-score)” value [10] was -0.296. For the same binder, the “glycan array binding signal (z-score)” value (GlcNAc(b1-4)GlcNAc) was -0.538, the “glycan array binding signal (z-score)” value [11] was -0.649 and the “glycan array binding signal (z-score)” value [12] was -0.604. For the same binder, the “glycan array binding signal (z-score)” value [13] was -0.159, the “glycan array binding signal (z-score)” value [14] was -1.04 and the “glycan array binding signal (z-score)” value [15] was -0.165. For the same binder, the “glycan array binding signal (z-score)” value (GlcNAc(b1-6)GalNAc) was -0.116, the “glycan array binding signal (z-score)” value [16] was -0.374 and the “glycan array binding signal (z-score)” value (Kdn(a2-3)Gal(b1-3)GalNAc) was 2.03. For the same binder, the “glycan array binding signal (z-score)” value (Kdn(a2-3)Gal(b1-3)GlcNAc) was -0.784, the “glycan array binding signal (z-score)” value (Kdn(a2-3)Gal(b1-4)Glc) was -0.426 and the “glycan array binding signal (z-score)” value (Kdn(a2-3)Gal(b1-4)GlcNAc) was -0.913. The “glycan array binding signal (z-score)” value [17] was -0.203, the “glycan array binding signal (z-score)” value (Kdn(a2-6)Gal(b1-4)GlcNAc) was -0.33 and the “glycan array binding signal (z-score)” value [18] was -0.103. The “glycan array binding signal (z-score)” value [19] was -0.335, the “glycan array binding signal (z-score)” value (Man(a1-2)Man(a1-3)Man) was -0.182 and the “glycan array binding signal (z-score)” value [20] was 0.072. The “glycan array binding signal (z-score)” value [21] was -1.21, the “glycan array binding signal (z-score)” value [22] was -0.187 and the “glycan array binding signal (z-score)” value [23] was -0.595. For the same binder, the “glycan array binding signal (z-score)” value [24] was -0.64, the “glycan array binding signal (z-score)” value [25] was -0.066 and the “glycan array binding signal (z-score)” value (Man(a1-3)[Man(a1-6)]Man) was -0.774. The “glycan array binding signal (z-score)” value [26] was 2.06, the “glycan array binding signal (z-score)” value [27] was 4.4 and the “glycan array binding signal (z-score)” value [28] was -0.244. For the same binder, the “glycan array binding signal (z-score)” value [29] was -0.201, the “glycan array binding signal (z-score)” value [30] was 0.348 and the “glycan array binding signal (z-score)” value (Man(a1-6)Man) was -0.259. The “glycan array binding signal (z-score)” value (Man(b1-4)GlcNAc) was -0.382, the “glycan array binding signal (z-score)” value (MurNAc(b1-4)GlcNAc) was -0.683 and the “glycan array binding signal (z-score)” value (Neu5Ac(a2-3)Gal) was -0.574.
